# Measured values reported in the supplement of paper PMC12217912.
# This is one part of the list. The full chains were built here from the parent and the listed change. Values near 0.05 are background.
# B1: TEV protease; numbered along this chain (parent)
# chain: MGESLFKGPRDYNPISSSICHLTNESDGHTTSLYGIGFGPFIITNKHLFRRNNGTLVVQSLHGVFKVKDTTTLQQHLVDGRDMIIIRMPKDFPPFPQKLKFREPQREERICLVTTNFQTKSMSSMVSDTSCTFPSGDGIFWKHWIQTKDGQCGSPLVSTRDGFIVGIHSASNFTNTNNYFTSVPKNFMELLTNQEAQQWVSGWRLNADSVLWGGHKVFMVKPEEPFQPVKEATQL
# Variants of: B1
# Assay: raw area under fraction-flipped curve 0-4 h after induction (AUC4h, not background-subtracted), DNA-recorder readout of cleavage of the substrate (dimensionless); higher = more cleavage of the substrate by the protease variant
# Conditions: temperature: 34 °C; time window: 0-4 h after rhamnose induction
# Procedure: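 In vivo DNA recorder in E. coli TOP10(DE3) ΔrhaA at 34 °C. Each TEVp single-site mutant (parent TEVp 0) is paired with a single-site variant of the 7-mer TEVs (canonical ENLYFQ|S). The substrate sits between flexible linkers in a Bxb1-sfGFP-TEVs-SsrA fusion, so cleavage stabilises Bxb1 and speeds flipping of a recombination array, read by NGS. The value is the raw area under the fraction-flipped curve over 0-4 h after rhamnose induction (AUC4h), with ≥20 reads per time point. It is not background-subtracted; inactive controls average about 0.047.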
# 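Further: Bxb1 expression induced with 0.2% (w/v) L-rhamnose at OD600 near 0.5, cultures sampled hourly, flipped fraction per protease–substrate barcode pair counted by paired-end Illumina sequencing.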
Variant,area with substrate ENLYFQA,area with substrate ENLYFQC,area with substrate ENLYFQG,area with substrate ENLYFQI,area with substrate ENLYFQK,area with substrate ENLYFQL,area with substrate ENLYFQN,area with substrate ENLYFQR,area with substrate ENLYFQS,area with substrate ENLYFQT,area with substrate ENLYFQV,area with substrate ENLYFQW,area with substrate ENLYFQY,area with substrate ENLYFQD,area with substrate ENLYFQH,area with substrate ENLYFQM,area with substrate ENLYFQP,area with substrate ENLYFQQ,area with substrate ENLYFQF,area with substrate ENLYFQE
S18T,0.0841,0.129,0.118,0.0304,0.0677,0.063,0.0897,0.0659,0.111,0.0683,0.0535,0.0792,0.0819,–,–,–,–,–,–,–
I167G,0.0693,–,–,0.0576,0.0606,0.0615,–,0.0553,0.0665,–,0.0641,0.0464,0.0517,0.0437,0.054,0.0529,0.0373,–,–,–
N13C,0.0886,0.104,0.0768,0.0679,0.0638,0.0596,0.074,0.0598,0.103,0.0342,0.0619,0.0479,0.0719,0.06,0.0589,0.0728,0.066,0.0241,–,–
S124K,0.11,0.119,0.115,0.0762,0.0613,0.0543,0.0797,0.0586,0.11,0.0607,–,–,0.0649,0.0686,0.0953,0.083,0.0507,0.0835,0.0824,–
V157G,0.0549,0.0438,0.0455,–,–,0.052,0.0474,0.0497,0.0538,0.0658,0.0337,–,–,–,0.0407,0.0451,–,–,–,0.0585
F117V,0.0879,–,0.0906,–,–,0.0371,0.0889,0.0494,0.0999,0.0667,0.0617,0.0706,0.0751,0.0659,0.0778,0.0821,0.0778,–,–,–
G136E,0.0575,0.128,0.097,0.0612,–,0.0633,–,0.0506,0.106,0.0649,0.0429,0.0687,0.0633,0.0384,–,–,0.0659,–,–,–
W144I,0.0884,–,–,0.0576,0.0585,0.0604,0.0513,0.0554,0.0875,0.0657,–,–,–,0.0636,0.0605,–,–,–,–,–
W144F,0.0663,–,0.0994,0.0602,0.0651,0.0731,0.0661,–,0.0917,0.0689,0.0491,0.0666,–,0.0888,0.0875,0.0855,–,–,–,–
L56R,0.0506,0.0477,0.0557,0.0364,0.0652,0.0452,0.0396,–,0.0486,–,–,0.0327,–,0.0437,0.0494,0.0624,0.0617,–,0.039,–
P40W,0.0906,0.115,0.0911,–,0.0571,–,0.0869,0.0494,0.104,0.0517,–,0.0563,–,–,0.0773,0.0839,0.0426,–,–,–
T176E,0.0795,0.0958,0.0666,–,0.0497,0.0419,0.0701,0.0495,0.0778,–,0.0582,0.0687,–,0.0736,0.0677,–,0.0638,0.0578,–,–
S123W,0.0976,0.11,0.0977,0.0545,0.0653,0.0551,0.144,0.0633,0.106,0.0659,0.0643,0.067,0.0805,0.0758,0.0597,0.091,0.0554,0.0763,0.0446,0.0693
V64G,0.0474,0.105,–,0.0585,–,0.0677,0.0688,0.0503,0.0966,0.0617,–,–,–,0.0769,0.0641,0.0738,–,–,–,–
V64Y,0.112,0.116,0.0948,0.0558,–,0.02,0.0849,0.0679,0.107,0.0759,–,0.0622,–,0.0464,–,0.105,0.0285,–,–,–
H215V,0.102,0.0506,–,0.0599,0.059,0.0463,–,0.0589,0.071,0.057,–,–,–,–,–,–,–,–,0.0628,–
T114H,0.0963,0.119,–,–,0.0678,–,0.0854,–,0.104,0.0699,–,–,–,–,–,–,–,–,–,–
I42S,0.0578,0.0488,0.0574,0.0435,0.041,0.0463,0.0391,0.0467,0.0479,0.0509,0.0529,0.0426,0.0589,0.0586,0.0529,0.0358,0.0405,0.0444,0.051,–
Q234G,0.108,0.13,0.087,0.0615,–,0.0609,–,0.0545,0.106,0.0617,–,0.101,–,0.061,0.0914,0.1,0.0583,–,–,–
R160Q,0.0787,0.112,0.0858,0.0565,0.0586,0.0627,0.0748,–,0.103,–,0.0683,–,0.0824,0.0791,0.0554,0.101,0.0573,–,0.0754,–
E3N,0.101,0.159,–,–,–,0.0366,–,–,0.127,–,–,0.0606,0.0699,–,–,0.116,–,–,–,–
T72F,0.0896,0.0837,0.07,0.0533,–,0.0614,0.0663,0.0544,0.0823,0.0362,0.0603,0.0611,0.0714,0.0526,–,0.0755,0.0522,–,0.0736,0.0575
T119M,0.0807,–,0.0814,–,–,–,0.0754,–,0.0955,0.0494,0.0596,–,–,0.0902,–,0.111,–,0.0737,–,–
K120I,0.101,–,0.075,0.0723,–,0.0874,0.065,0.0485,0.092,0.0494,–,0.0821,–,0.0728,0.0756,0.0819,–,–,–,–
E25I,0.114,0.117,0.12,0.0696,–,0.0631,–,0.0633,0.0984,0.0655,0.061,0.0718,0.0648,–,0.149,0.0716,0.0592,–,0.0561,0.0543
K216P,0.0845,–,–,–,–,0.0623,–,0.0613,0.0891,–,–,0.0682,0.0524,0.0487,–,–,–,–,0.0752,–
L112K,0.113,0.102,0.1,0.0613,0.0518,0.0611,0.0782,0.0519,0.0988,0.068,0.0658,0.0657,–,–,0.0921,0.087,0.055,0.0709,–,–
